From paper PMC7904734, “ORP/Osh mediate cross-talk between ER-plasma membrane contact site components and plasma membrane SNAREs” (Cellular and Molecular Life Sciences: CMLS, 2020)
No constants are given. Whether binding was seen depends on the method and setting. Binding seen in cells or lysates may run through a third protein. Some results given as binding are weak or reduced against the parent protein; the word gives no strength.

Sequences of proteins named here, by UniProt entry; tags and fusion partners are left off.
UniProt P60880: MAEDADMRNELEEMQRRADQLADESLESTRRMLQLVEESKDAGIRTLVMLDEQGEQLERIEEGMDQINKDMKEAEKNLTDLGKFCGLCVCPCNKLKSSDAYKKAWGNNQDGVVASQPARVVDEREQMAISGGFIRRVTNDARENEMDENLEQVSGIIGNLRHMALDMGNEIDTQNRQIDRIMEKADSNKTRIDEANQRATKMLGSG

B1: Venus(N)·ORP6 (protein, UniProt Q9BZF3 1-934)
chain: MSSDEKGISPAHKTSTPTHRSASSSTSSQRDSRQSIHILERTASSSTEPSVSRQLLEPEPVPLSKEADSWEIIEGLKIGQTNVQKPDKHEGFMLKKRKWPLKGWHKRFFVLDNGMLKYSKAPLDIQKGKVHGSIDVGLSVMSIKKKARRIDLDTEEHIYHLKVKSQDWFDAWVSKLRHHRLYRQNEIVRSPRDASFHIFPSTSTAESSPAANVSVMDGKMQPNSFPWQSPLPCSNSLPATCTTGQSKVAAWLQDSEEMDRCAEDLAHCQSNLVELSKLLQNLEILQRTQSAPNFTDMQANCVDISKKDKRVTRRWRTKSVSKDTKIQLQVPFSATMSPVRLHSSNPNLCADIEFQTPPSHLTDPLESSTDYTKLQEEFCLIAQKVHSLLKSAFNSIAIEKEKLKQMVSEQDHSKGHSTQMARLRQSLSQALNQNAELRSRLNRIHSESIICDQVVSVNIIPSPDEAGEQIHVSLPLSQQVANESRLSMSESVSEFFDAQEVLLSASSSENEASDDESYISDVSDNISEDNTSVADNISRQILNGELTGGAFRNGRRACLPAPCPDTSNINLWNILRNNIGKDLSKVSMPVELNEPLNTLQHLCEEMEYSELLDKASETDDPYERMVLVAAFAVSGYCSTYFRAGSKPFNPVLGETYECIREDKGFRFFSEQVSHHPPISACHCESKNFVFWQDIRWKNKFWGKSMEILPVGTLNVMLPKYGDYYVWNKVTTCIHNILSGRRWIEHYGEVTIRNTKSSVCICKLTFVKVNYWNSNMNEVQGVVIDQEGKAVYRLFGKWHEGLYCGVAPSAKCIWRPGSMPTNYELYYGFTRFAIELNELDPVLKDLLPPTDARFRPDQRFLEEGNLEAAASEKQRVEELQRSRRRYMEENNLEHIPKFFKKVIDANQREAWVSNDTYWELRKDPGFSKVDSPVLW
B2: Venus(N)·ORP8 (protein, UniProt Q9BZF1 1-889)
chain: MEGGLADGEPDRTSLLGDSKDVLGPSTVVANSDESQLLTPGKMSQRQGKEAYPTPTKDLHQPSLSPASPHSQGFERGKEDISQNKDESSLSMSKSKSESKLYNGSEKDSSTSSKLTKKESLKVQKKNYREEKKRATKELLSTITDPSVIVMADWLKIRGTLKSWTKLWCVLKPGVLLIYKTQKNGQWVGTVLLNACEIIERPSKKDGFCFKLFHPLEQSIWAVKGPKGEAVGSITQPLPSSYLIIRATSESDGRCWMDALELALKCSSLLKRTMIREGKEHDLSVSSDSTHVTFYGLLRANNLHSGDNFQLNDSEIERQHFKDQDMYSDKSDKENDQEHDESDNEVMGKSEESDTDTSERQDDSYIEPEPVEPLKETTYTEQSHEELGEAGEASQTETVSEENKSLIWTLLKQVRPGMDLSKVVLPTFILEPRSFLDKLSDYYYHADFLSEAALEENPYFRLKKVVKWYLSGFYKKPKGLKKPYNPILGETFRCLWIHPRTNSKTFYIAEQVSHHPPISAFYVSNRKDGFCLSGSILAKSKFYGNSLSAILEGEARLTFLNRGEDYVMTMPYAHCKGILYGTMTLELGGTVNITCQKTGYSAILEFKLKPFLGSSDCVNQISGKLKLGKEVLATLEGHWDSEVFITDKKTDNSEVFWNPTPDIKQWRLIRHTVKFEEQGDFESEKLWQRVTRAINAKDQTEATQEKYVLEEAQRQAARDRKTKNEEWSCKLFELDPLTGEWHYKFADTRPWDPLNDMIQFEKDGVIQTKVKHRTPMVSVPKMKHKPTRQQKKVAKGYSSPEPDIQDSSGSEAQSVKPSTRRKKGIELGDIQSSIESIKQTQEEIKRNIMALRNHLVSSTPATDYFLQQKDYFIIFLLILLQVIINFMFK
B3: Venus(N)·ORP10 (protein, UniProt Q9BXB5 1-764)
chain: MERAVQGTDGGGGSNSSSRSSSRATSAGSSPSCSLAGRGVSSRSAAAGLGGGGSRSSPGSVAASPSGGGGRRREPALEGVLSKYTNLLQGWQNRYFVLDFEAGILQYFVNEQSKHQKPRGVLSLSGAIVSLSDEAPHMLVVYSANGEMFKLRAADAKEKQFWVTQLRACAKYHMEMNSKSAPSSRSRSLTLLPHGTPNSASPCSQRHLSVGAPGVVTITHHKSPAAARRAKSQYSGQLHEVREMMNQVEGQQKNLVHAIESLPGSGPLTALDQDLLLLKATSAATLSCLGECLNLLQQSVHQAGQPSQKPGASENILGWHGSKSHSTEQLKNGTLGSLPSASANITWAILPNSAEDEQTSQPEPEPNSGSELVLSEDEKSDNEDKEETELGVMEDQRSIILHLISQLKLGMDLTKVVLPTFILEKRSLLEMYADFMAHPDLLLAITAGATPEERVICFVEYYLTAFHEGRKGALAKKPYNPIIGETFHCSWEVPKDRVKPKRTASRSPASCHEHPMADDPSKSYKLRFVAEQVSHHPPISCFYCECEEKRLCVNTHVWTKSKFMGMSVGVSMIGEGVLRLLEHGEEYVFTLPSAYARSILTIPWVELGGKVSINCAKTGYSATVIFHTKPFYGGKVHRVTAEVKHNPTNTIVCKAHGEWNGTLEFTYNNGETKVIDTTTLPVYPKKIRPLEKQGPMESRNLWREVTRYLRLGDIDAATEQKRHLEEKQRVEERKRENLRTPWKPKYFIQEGDGWVYFNPLWKAH
B4: Venus(N)·ORP11 (protein, UniProt Q9BXB4 1-747)
chain: MQGGEPVSTMKVSESEGKLEGQATAVTPNKNSSCGGGISSSSSSRGGSAKGWQYSDHMENVYGYLMKYTNLVTGWQYRFFVLNNEAGLLEYFVNEQSRNQKPRGTLQLAGAVISPSDEDSHTFTVNAASGEQYKLRATDAKERQHWVSRLQICTQHHTEAIGKNNPPLKSRSFSLASSSNSPISQRRPSQNAISFFNVGHSKLQSLSKRTNLPPDHLVEVREMMSHAEGQQRDLIRRIECLPTSGHLSSLDQDLLMLKATSMATMNCLNDCFHILQLQHASHQKGSLPSGTTIEWLEPKISLSNHYKNGADQPFATDQSKPVAVPEEQPVAESGLLAREPEEINADDEIEDTCDHKEDDLGAVEEQRSVILHLLSQLKLGMDLTRVVLPTFILEKRSLLEMYADFMSHPDLFIAITNGATAEDRMIRFVEYYLTSFHEGRKGAIAKKPYNPIIGETFHCSWKMPKSEVASSVFSSSSTQGVTNHAPLSGESLTQVGSDCYTVRFVAEQVSHHPPVSGFYAECTERKMCVNAHVWTKSKFLGMSIGVTMVGEGILSLLEHGEEYTFSLPCAYARSILTVPWVELGGKVSVNCAKTGYSASITFHTKPFYGGKLHRVTAEVKHNITNTVVCRVQGEWNSVLEFTYSNGETKYVDLTKLAVTKKRVRPLEKQDPFESRRLWKNVTDSLRESEIDKATEHKHTLEERQRTEERHRTETGTPWKTKYFIKEGDGWVYHKPLWKIIPTTQPAE
B5: Venus(N)·ORP7 (protein, UniProt Q9BZF2 1-842)
chain: MDFQERDPPFLPESAQSSKPSSAQQASELWEVVEEPRVRLGTEGVMPERQEGHLLKKRKWPLKGWHKRYFVLEDGILHYATTRQDITKGKLHGSIDVRLSVMSINKKAQRIDLDTEDNIYHLKIKSQDLFQSWVAQLRAHRLAHRLDMPRGSLPSTAHRKVPGAQLPTAATASALPGLGPREKVSSWLRDSDGLDRCSHELSECQGKLQELHRLLQSLESLHRIPSAPVIPTHQASVTTERPKKGKRTSRMWCTQSFAKDDTIGRVGRLHGSVPNLSRYLESRDSSGTRGLPPTDYAHLQRSFWALAQKVHSSLSSVLAALTMERDQLRDMHQGSELSRMGVSEASTGQRRLHSLSTSSDTTADSFSSLNPEEQEALYMKGRELTPQLSQTSILSLADSHTEFFDACEVLLSASSSENEGSEEEESCTSEITTSLSEEMLDLRGAERCQKGGCVPGRPMGPPRRRCLPAASGPGADVSLWNILRNNIGKDLSKVSMPVQLNEPLNTLQRLCEELEYSSLLDQASRIADPCERMVYIAAFAVSAYSSTYHRAGCKPFNPVLGETYECERPDRGFRFISEQVSHHPPISACHAESENFAFWQDMKWKNKFWGKSLEIVPVGTVNVSLPRFGDHFEWNKVTSCIHNVLSGQRWIEHYGEVLIRNTQDSSCHCKITFCKAKYWSSNVHEVQGAVLSRSGRVLHRLFGKWHEGLYRGPTPGGQCIWKPNSMPPDHERNFGFTQFALELNELTAELKRSLPSTDTRLRPDQRYLEEGNIQAAEAQKRRIEQLQRDRRKVMEENNIVHQARFFRRQTDSSGKEWWVTNNTYWRLRAEPGYGNMDGAVLW
B6: Venus(N)·ORP9L (protein, UniProt Q96SU4 1-736)
chain: MASIMEGPLSKWTNVMKGWQYRWFVLDYNAGLLSYYTSKDKMMRGSRRGCVRLRGAVIGIDDEDDSTFTITVDQKTFHFQARDADEREKWIHALEETILRHTLQLQGLDSGFVPSVQDFDKKLTEADAYLQILIEQLKLFDDKLQNCKEDEQRKKIETLKETTNSMVESIKHCIVLLQIAKDQSNAEKHADGMISTINPVDAIYQPSPLEPVISTMPSQTVLPPEPVQLCKSEQRPSSLPVGPVLATLGHHQTPTPNSTGSGHSPPSSSLTSPSHVNLSPNTVPEFSYSSSEDEFYDADEFHQSGSSPKRLIDSSGSASVLTHSSSGNSLKRPDTTESLNSSLSNGTSDADLFDSHDDRDDDAEAGSVEEHKSVIMHLLSQVRLGMDLTKVVLPTFILERRSLLEMYADFFAHPDLFVSISDQKDPKDRMVQVVKWYLSAFHAGRKGSVAKKPYNPILGEIFQCHWTLPNDTEENTELVSEGPVPWVSKNSVTFVAEQVSHHPPISAFYAECFNKKIQFNAHIWTKSKFLGMSIGVHNIGQGCVSCLDYDEHYILTFPNGYGRSILTVPWVELGGECNINCSKTGYSANIIFHTKPFYGGKKHRITAEIFSPNDKKSFCSIEGEWNGVMYAKYATGENTVFVDTKKLPIIKKKVRKLEDQNEYESRSLWKDVTFNLKIRDIDAATEAKHRLEERQRAEARERKEKEIQWETRLFHEDGECWVYDEPLLKRLGAAKH

target: Venus(C)·SNAP-25 (UniProt P60880); test: split reporter; BiFC of Venus(N) and Venus(C) fusions in transfected HEK293 cells, fixed after 24 h; co-transfection marker mCherry or mCherry·ORP

binding | Binder
no binding | B1
binds | B2
binds | B3
binds | B4
no binding | B5
binds | B6
